Results are given in words; binding and its absence hold for the method and conditions named. For some of these results: Binding seen in cells or lysates may run through a third protein. Some results given as binding are weak or reduced against the parent protein; the word gives no strength. For some of these results: Sequences can lack the tags named with a protein.
T1: PmDAM6 (Prunus mume) (UniProt B9A1S9)
T1 sequence: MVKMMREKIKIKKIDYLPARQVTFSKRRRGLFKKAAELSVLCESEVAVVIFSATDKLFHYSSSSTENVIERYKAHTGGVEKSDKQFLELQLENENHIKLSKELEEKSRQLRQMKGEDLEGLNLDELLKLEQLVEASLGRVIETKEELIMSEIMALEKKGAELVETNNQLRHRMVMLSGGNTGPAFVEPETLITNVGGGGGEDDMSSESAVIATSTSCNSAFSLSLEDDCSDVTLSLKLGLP

T2: PmDAM3 (Prunus mume) (UniProt G1UE21)
T2 sequence: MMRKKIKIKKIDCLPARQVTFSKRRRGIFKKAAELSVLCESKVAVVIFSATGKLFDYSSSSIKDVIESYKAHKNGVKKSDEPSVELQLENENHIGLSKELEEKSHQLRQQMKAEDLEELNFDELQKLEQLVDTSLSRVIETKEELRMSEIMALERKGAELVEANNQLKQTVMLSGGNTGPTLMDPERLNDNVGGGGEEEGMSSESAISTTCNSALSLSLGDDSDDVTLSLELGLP

T3: PmDAM2 (Prunus mume) (UniProt G1UE20)
T3 sequence: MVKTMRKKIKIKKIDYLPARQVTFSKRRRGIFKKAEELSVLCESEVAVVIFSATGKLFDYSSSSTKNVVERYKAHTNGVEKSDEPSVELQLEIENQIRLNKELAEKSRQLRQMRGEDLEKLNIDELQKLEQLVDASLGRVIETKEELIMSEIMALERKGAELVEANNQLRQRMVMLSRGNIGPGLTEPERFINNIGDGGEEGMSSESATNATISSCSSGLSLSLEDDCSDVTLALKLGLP

T4: PmDAM5 (Prunus mume) (UniProt G1UE18)
T4 sequence: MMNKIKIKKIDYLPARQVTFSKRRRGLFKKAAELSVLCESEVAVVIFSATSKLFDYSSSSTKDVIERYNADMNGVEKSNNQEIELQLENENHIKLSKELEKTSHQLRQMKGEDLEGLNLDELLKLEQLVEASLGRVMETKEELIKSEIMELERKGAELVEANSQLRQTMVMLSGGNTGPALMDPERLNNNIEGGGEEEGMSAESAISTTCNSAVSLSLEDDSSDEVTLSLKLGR

T5: PmDAM6-YFP^N / PmDAM6-YFP^C (Prunus mume) (UniProt B9A1S9)
T5 sequence: T1 sequence

T6: PmDAM2-YFP^N / PmDAM2-YFP^C (Prunus mume) (UniProt G1UE20)
T6 sequence: T3 sequence

T7: PmDAM5-YFP^N / PmDAM5-YFP^C (Prunus mume) (UniProt G1UE18)
T7 sequence: T4 sequence

B1: PmDAM1 (protein, UniProt G1UE19 1-235)
chain: MKMMREKIKIKKIDNLPARQVTFSKRRRGIFKKAAELSVLCESEVAVVIFSATGKLFDYSSSSMKDVIERYQVHINGGEKFNERSIELQPEYENHIRLSKELKEKSRQLRQMKGEDLEELNFDELQKLEQLVDASLGRVIETKDERIMSEIMALERKRAELVKANKQLRQRMLFRGNIGPELMKPERLNNNFGGGGEEEGMSSESATSTTCNSAPSLSLEDDSDDVTLSLKLGLP
B2: PmDAM1-YFP^N / PmDAM1-YFP^C (protein, UniProt G1UE19 1-235)
chain: B1 chain
B3: PmDAM6-YFP^N / PmDAM6-YFP^C (protein, UniProt B9A1S9 1-241)
chain: T1 sequence
B4: PmDAM2-YFP^N / PmDAM2-YFP^C (protein, UniProt G1UE20 1-240)
chain: T3 sequence
B5: PmDAM5-YFP^N / PmDAM5-YFP^C (protein, UniProt G1UE18 1-234)
chain: T4 sequence
B6: PmDAM6 (protein, UniProt B9A1S9 1-241)
chain: T1 sequence
B7: PmDAM2 (protein, UniProt G1UE20 1-240)
chain: T3 sequence
B8: PmDAM5 (protein, UniProt G1UE18 1-234)
chain: T4 sequence
B9: PmDAM3 (protein, UniProt G1UE21 1-235)
chain: T2 sequence

Legend:
[1] = molecular target: T1, PmDAM6 (Prunus mume); assay: two-hybrid; yeast two-hybrid; full-length PmDAMs in pGBKT7 (bait) and pGADT7 (prey); each interaction screened in triplicate; baits without auto-activation or toxicity
[2] = molecular target: PmDAM1 (Prunus mume) (UniProt G1UE19); assay: as above
[3] = molecular target: T2, PmDAM3 (Prunus mume); assay: as above
[4] = molecular target: T3, PmDAM2 (Prunus mume); assay: as above
[5] = molecular target: T4, PmDAM5 (Prunus mume); assay: as above
[6] = molecular target: T5, PmDAM6-YFP^N / PmDAM6-YFP^C (Prunus mume); assay: split reporter; BiFC with YFP^N and YFP^C fusions co-expressed in N. benthamiana leaves by agroinfiltration; confocal microscopy 2 days after infiltration, YFP excited at 514 nm
[7] = molecular target: T6, PmDAM2-YFP^N / PmDAM2-YFP^C (Prunus mume); assay: as above
[8] = molecular target: T7, PmDAM5-YFP^N / PmDAM5-YFP^C (Prunus mume); assay: as above
[9] = molecular target: PmDAM1-YFP^N / PmDAM1-YFP^C (Prunus mume) (UniProt G1UE19); assay: as above

| Binder | binding [1] | binding [3] | binding [5] | binding [6] | other results |
| --- | --- | --- | --- | --- | --- |
| B1 | binds | no binding | binds |  | binding [2]: binds; binding [4]: binds |
| B2 |  |  |  | binds | binding [7]: binds; binding [8]: binds; binding [9]: binds |
| B3 |  |  |  | binds |  |
| B4 |  |  |  | binds | binding [8]: binds |
| B5 |  |  |  | binds |  |
| B6 | binds |  |  |  |  |
| B7 | binds weakly | no binding | binds |  | binding [4]: no binding |
| B8 | binds weakly |  | no binding |  |  |
| B9 |  | no binding | no binding |  |  |
